Source: PMC4256259
These are yes or no findings as the source states them, for the method shown. In cells and extracts the contact can be indirect. Tags and fused reporters may be left off the sequences shown.

Legend:
Test in all cases: co-IP; GFP-tagged baits purified with GFP-Trap from yeast cell lysates in IP buffer (20 mM Tris-HCl pH 7.5, 5 mM MgCl2, 150 mM potassium acetate, 1 mM DTT, 0.2% Triton X-100); no RNase A; endogenous Rrp12 detected by Western blot
Conditions in all cases: remark: other sources report otherwise
[1] = molecular target: T1, Nop7-GFP (S. cerevisiae), P53261
T1 chain: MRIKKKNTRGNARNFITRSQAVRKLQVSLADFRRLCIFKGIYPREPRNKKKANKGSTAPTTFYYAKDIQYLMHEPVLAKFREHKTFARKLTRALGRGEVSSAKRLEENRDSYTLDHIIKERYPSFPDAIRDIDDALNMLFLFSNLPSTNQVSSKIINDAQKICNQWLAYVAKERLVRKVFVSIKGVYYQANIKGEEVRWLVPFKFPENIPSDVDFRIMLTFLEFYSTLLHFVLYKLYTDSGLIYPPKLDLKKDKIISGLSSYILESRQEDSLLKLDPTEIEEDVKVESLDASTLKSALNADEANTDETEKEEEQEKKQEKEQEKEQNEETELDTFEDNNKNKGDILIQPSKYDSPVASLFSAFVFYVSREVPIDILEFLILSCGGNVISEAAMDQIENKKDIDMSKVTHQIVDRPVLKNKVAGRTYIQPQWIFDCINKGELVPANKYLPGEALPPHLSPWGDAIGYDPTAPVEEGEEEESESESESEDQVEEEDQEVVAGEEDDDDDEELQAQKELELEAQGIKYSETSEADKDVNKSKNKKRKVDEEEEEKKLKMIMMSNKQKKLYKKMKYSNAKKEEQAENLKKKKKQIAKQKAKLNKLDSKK

[2] = molecular target: T2, Rio2-GFP (S. cerevisiae), P40160
T2 chain: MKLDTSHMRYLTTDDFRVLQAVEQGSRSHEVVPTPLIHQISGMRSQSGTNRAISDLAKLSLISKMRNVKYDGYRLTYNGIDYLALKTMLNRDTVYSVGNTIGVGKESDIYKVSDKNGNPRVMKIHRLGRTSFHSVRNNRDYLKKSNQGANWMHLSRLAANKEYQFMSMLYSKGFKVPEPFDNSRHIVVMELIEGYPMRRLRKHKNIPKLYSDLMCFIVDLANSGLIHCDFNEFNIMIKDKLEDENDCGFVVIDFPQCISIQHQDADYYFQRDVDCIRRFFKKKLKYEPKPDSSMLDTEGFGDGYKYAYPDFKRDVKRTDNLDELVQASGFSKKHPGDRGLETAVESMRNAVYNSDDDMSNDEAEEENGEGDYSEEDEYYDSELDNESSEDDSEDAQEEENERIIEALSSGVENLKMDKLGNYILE

[3] = molecular target: T3, Kre35-GFP (S. cerevisiae), P53145
T3 chain: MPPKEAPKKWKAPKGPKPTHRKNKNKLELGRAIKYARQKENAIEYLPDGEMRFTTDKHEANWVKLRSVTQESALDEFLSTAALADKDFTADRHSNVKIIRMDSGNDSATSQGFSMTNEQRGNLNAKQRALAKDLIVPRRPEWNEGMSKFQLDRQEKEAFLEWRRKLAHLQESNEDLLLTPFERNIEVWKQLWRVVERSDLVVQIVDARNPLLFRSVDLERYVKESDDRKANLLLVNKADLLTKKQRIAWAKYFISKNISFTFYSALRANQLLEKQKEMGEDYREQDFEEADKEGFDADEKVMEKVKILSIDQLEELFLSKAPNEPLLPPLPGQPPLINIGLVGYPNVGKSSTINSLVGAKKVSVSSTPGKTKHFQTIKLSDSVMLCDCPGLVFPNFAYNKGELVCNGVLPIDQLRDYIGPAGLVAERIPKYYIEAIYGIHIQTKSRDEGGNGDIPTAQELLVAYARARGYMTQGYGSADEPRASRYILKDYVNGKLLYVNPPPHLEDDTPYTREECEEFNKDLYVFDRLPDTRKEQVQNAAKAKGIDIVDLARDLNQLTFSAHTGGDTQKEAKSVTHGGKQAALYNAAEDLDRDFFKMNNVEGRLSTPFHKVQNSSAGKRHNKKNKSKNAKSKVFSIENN

[4] = molecular target: T4, Arx1-GFP (S. cerevisiae), Q03862
T4 chain: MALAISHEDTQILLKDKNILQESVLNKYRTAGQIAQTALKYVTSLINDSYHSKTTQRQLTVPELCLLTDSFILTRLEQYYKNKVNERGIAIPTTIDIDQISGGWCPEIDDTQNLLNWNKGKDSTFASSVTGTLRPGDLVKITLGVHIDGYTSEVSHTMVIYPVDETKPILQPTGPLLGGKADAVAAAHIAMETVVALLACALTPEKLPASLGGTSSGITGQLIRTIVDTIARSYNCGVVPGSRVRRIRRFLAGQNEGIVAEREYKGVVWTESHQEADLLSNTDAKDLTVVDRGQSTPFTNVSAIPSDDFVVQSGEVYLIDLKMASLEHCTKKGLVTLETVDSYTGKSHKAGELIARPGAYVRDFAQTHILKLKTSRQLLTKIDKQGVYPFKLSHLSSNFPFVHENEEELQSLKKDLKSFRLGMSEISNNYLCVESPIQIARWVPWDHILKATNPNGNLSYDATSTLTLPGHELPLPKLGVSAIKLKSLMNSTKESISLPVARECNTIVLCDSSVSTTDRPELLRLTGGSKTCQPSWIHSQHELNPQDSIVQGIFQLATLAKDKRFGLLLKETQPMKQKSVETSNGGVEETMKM

binding [1]: no binding
binding [2]: no binding
binding [3]: no binding
binding [4]: no binding
B1: Rrp12 (endogenous), Q12754 1-1228 (protein)
chain: MDQDKVAFLLELEDKLAKIRSQVNSKLENQKHIAIILTAVEENIAGQATNDVSKNIVNYIISFMSLLDQAVDPSTHEIKDIQLASSSTYLLDLIFHYSPKVLLRSKFSEILTKIAPCITAEKANAPLIRAAIGCLESLLIAQDAQAWNNTYDLNVTPKRGLQGILELSLDVRPKVRKRALDAVHAVLLNPPVAPTAEHVAAVFVADFCDKQLAGILNDLSNLSNKQLKAQKTKEDINASVMRSLRLITSVVSTGQWPSSQIEPLCDVLLGVTKSSEQYLVSASFECFESMFKTMAETTISSGLAENKYLRVLDTIFALKPSNVDTLLTKSWIAVVIKGMSTYATHQPLKALRKIPGVFHIMCTYLASETPEVYQAASQCLISILSESVKDDLLLYTPSVDEKVFKNVDEIISQIAKTFIDFLSIRYSHCSREILKILVAAFNKFRYRSNPHFLKSLKIVDTWRVNEEQFMDLRNEIELVIGASISAMGPEMILAEAPLNLDNPSSERPGRAWLLPLIRDYTKNANLATFQNELAPYIKSFQSKFDKVPEESIQLRVFQTIVDQIWSTLPRFCELPMDLRESFTDEFASELSSLLYSEVELRTTICHALKVLAESNVSYAEESSSHNVLLLQRFPISEAQKNIEYLSTKSTNLLAVLFNVYTQTTPNARSYILETIDQYLKITSKEDLEKTFNNVCGLLKNSMNEESSGNVNKEKKKPQLTATLLDLIICMITYLPVSSYSALFSMFSLTVNSADALIQKRAYRIITKLSELKSGSTAVAQFISDIENVMVDSASSVQTSAKAARLTAIKTIVELLPLDHLDFIVRTVAEVILSTKDVNEKSRETAFDTLICMGRKMNEPNGIIKLFQIPGYDPTTPDQSSSISEFFKIISAGLIGESQHMVSSSITGYACLVFEFKNELDSGILMDIYDTIELYLTSNSREIVKSAIGFTKVCVLGLPEELMRPKVPELLLKLLRWSHEHTGHFKAKVKHIIERLIRRFGYDYIEANFPEEDRRLLTNIRKMRNRNKRKDEEVTTGVSDVAATKGSRFMSAFDEAVYGSDEENDNGSDQEENVAGGKMKNGAKQFIVESGDNPLDLLDSQTLAHISSTRPKKFNKNQNRARFNDDAFNFDSEGKLVVKGQPKPSTNVDDPLSAVTSGINAYLEAVKSGPVRGQRNKLKFRKNGKDSDEFGDDDDGEKDSRLMRGRVNQGNKIGKHNKKGPKFKSRKKL
